In the supplement of paper PMC8728848:
This is one part of the list.

Tests used:
Assay in all cases: glycan array binding signal (z-score within array); higher = stronger binding
Conditions in all cases: glycan notation: IUPAC condensed, linker removed
[1] = biological target: Gal(b1-3)GlcNAc(a1-6)Gal(b1-4)GlcNAc
Outline: (§1)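 The binding signal is a Z-score computed within each array. Data were drawn from 3228 arrays in the Consortium for Functional Glycomics database, restricted to those with a known protein sequence. Scores were averaged over arrays of the same protein sequence at different concentrations or buffers, and over linkers, and negative values can be taken as non-binding.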

[2] = biological target: Gal(b1-3)GlcNAc(b1-2)Man(a1-3)[Gal(b1-3)GlcNAc(b1-2)Man(a1-6)]Man(b1-4)GlcNAc(b1-4)GlcNAc
Outline: as §1

[3] = biological target: Gal(b1-3)GlcNAc(b1-2)Man(a1-3)[Gal(b1-3)GlcNAc(b1-2)Man(a1-6)]Man(b1-4)GlcNAc(b1-4)[Fuc(a1-6)]GlcNAc
Outline: as §1

[4] = biological target: Gal(b1-3)GlcNAc(b1-2)[Gal(b1-3)GlcNAc(b1-6)]Man(a1-6)[Gal(b1-3)GlcNAc(b1-2)Man(a1-3)]Man(b1-4)GlcNAc(b1-4)GlcNAc
Outline: as §1

[5] = biological target: Gal(b1-3)GlcNAc(b1-3)Gal(b1-3)GlcNAc
Outline: as §1

[6] = biological target: Gal(b1-3)GlcNAc(b1-3)Gal(b1-4)Glc
Outline: as §1

[7] = biological target: Gal(b1-3)GlcNAc(b1-3)Gal(b1-4)GlcNAc
Outline: as §1

[8] = biological target: Gal(b1-3)GlcNAc(b1-3)Gal(b1-4)GlcNAc(b1-6)[Gal(b1-3)GlcNAc(b1-3)]Gal(b1-4)Glc
Outline: as §1

[9] = biological target: Gal(b1-3)GlcNAc(b1-3)Gal(b1-4)[Fuc(a1-3)]GlcNAc(b1-6)[Gal(b1-3)GlcNAc(b1-3)]Gal(b1-4)Glc
Outline: as §1

[10] = biological target: Gal(b1-3)GlcNAc(b1-3)GalNAc
Outline: as §1

[11] = biological target: Gal(b1-3)GlcNAc(b1-6)Gal(b1-4)GlcNAc
Outline: as §1

[12] = biological target: Gal(b1-3)[Fuc(a1-4)]GlcNAc
Outline: as §1

[13] = biological target: Gal(b1-3)[Fuc(a1-4)]GlcNAc(b1-2)Man(a1-3)[Gal(b1-3)[Fuc(a1-4)]GlcNAc(b1-2)Man(a1-6)]Man(b1-4)GlcNAc(b1-4)GlcNAc
Outline: as §1

[14] = biological target: Gal(b1-3)[Fuc(a1-4)]GlcNAc(b1-2)Man(a1-3)[Gal(b1-3)[Fuc(a1-4)]GlcNAc(b1-2)Man(a1-6)]Man(b1-4)GlcNAc(b1-4)[Fuc(a1-6)]GlcNAc
Outline: as §1

[15] = biological target: Gal(b1-3)[Fuc(a1-4)]GlcNAc(b1-3)Gal(b1-3)[Fuc(a1-4)]GlcNAc
Outline: as §1

[16] = biological target: Gal(b1-3)[Fuc(a1-4)]GlcNAc(b1-3)Gal(b1-4)GlcNAc
Outline: as §1

[17] = biological target: Gal(b1-3)[Fuc(a1-4)]GlcNAc(b1-3)Gal(b1-4)[Fuc(a1-3)]GlcNAc
Outline: as §1

[18] = biological target: Gal(b1-3)[GlcNAc(b1-6)]GalNAc
Outline: as §1

[19] = biological target: Gal(b1-3)[Neu5Ac(a2-6)]GalNAc
Outline: as §1

[20] = biological target: Gal(b1-3)[Neu5Ac(a2-6)]GlcNAc(b1-6)Gal(b1-4)Glc
Outline: as §1

[21] = biological target: Gal(b1-3)[Neu5Ac(b2-6)]GalNAc
Outline: as §1

[22] = biological target: Gal(b1-4)Gal
Outline: as §1

[23] = biological target: Gal(b1-4)GalNAc(a1-3)[Fuc(a1-2)]Gal(b1-4)GlcNAc
Outline: as §1

[24] = biological target: Gal(b1-4)GalNAc(b1-3)[Fuc(a1-2)]Gal(b1-4)GlcNAc
Outline: as §1

[25] = biological target: Gal(b1-4)Glc
Outline: as §1

[26] = biological target: Gal(b1-4)Glc6S
Outline: as §1

[27] = biological target: Gal(b1-4)GlcNAc
Outline: as §1

[28] = biological target: Gal(b1-4)GlcNAc(a1-6)Gal(b1-4)GlcNAc
Outline: as §1

[29] = biological target: Gal(b1-4)GlcNAc(b1-2)Man(a1-3)Man(b1-4)GlcNAc(b1-4)GlcNAc
Outline: as §1

[30] = biological target: Gal(b1-4)GlcNAc(b1-2)Man(a1-3)[Gal(b1-4)GlcNAc(b1-2)Man(a1-6)]Man(b1-4)GlcNAc(b1-4)GlcNAc
Outline: as §1

[31] = biological target: Gal(b1-4)GlcNAc(b1-2)Man(a1-3)[Gal(b1-4)GlcNAc(b1-2)Man(a1-6)]Man(b1-4)GlcNAc(b1-4)[Fuc(a1-6)]GlcNAc
Outline: as §1

[32] = biological target: Gal(b1-4)GlcNAc(b1-2)Man(a1-3)[Gal(b1-4)GlcNAc(b1-2)][GlcNAc(b1-4)]Man(b1-4)GlcNAc(b1-4)GlcNAc
Outline: as §1

[33] = biological target: Gal(b1-4)GlcNAc(b1-2)Man(a1-3)[GlcNAc(b1-2)Man(a1-6)]Man(b1-4)GlcNAc(b1-4)GlcNAc
Outline: as §1

[34] = biological target: Gal(b1-4)GlcNAc(b1-2)Man(a1-3)[Man(a1-6)]Man(b1-4)GlcNAc(b1-4)GlcNAc
Outline: as §1

[35] = biological target: Gal(b1-4)GlcNAc(b1-2)Man(a1-6)Man(b1-4)GlcNAc(b1-4)GlcNAc
Outline: as §1

[36] = biological target: Gal(b1-4)GlcNAc(b1-2)Man(a1-6)[GlcNAc(b1-2)Man(a1-3)]Man(b1-4)GlcNAc(b1-4)GlcNAc
Outline: as §1

[37] = biological target: Gal(b1-4)GlcNAc(b1-2)Man(a1-6)[Man(a1-3)]Man(b1-4)GlcNAc(b1-4)GlcNAc
Outline: as §1

[38] = biological target: Gal(b1-4)GlcNAc(b1-2)[Gal(b1-4)GlcNAc(b1-4)]Man(a1-3)[Gal(b1-4)GlcNAc(b1-2)Man(a1-6)]Man(b1-4)GlcNAc(b1-4)GlcNAc
Outline: as §1

B1: ASAL (Allium sativum), P83886 (protein)
chain: MGRTTSSPKAMMRIATVAAILTILASTCMARNVLTNGEGLYAGQSLDVEQYKFIMQDDCNLVLYEYSTPIWASNTGVTGKNGCRAVMQRDGNFVVYDVNGRPVWASNSVRGNGNYILVLQKDRNVVIYGSDIWSTGTYRRSVGGAVVMAMNGTVDGGSVIGPVVVNQNVTAAIRKVGTGAA
glycan array binding signal (z-score) [1]: -0.252 | glycan array binding signal (z-score) [2]: -0.113 | glycan array binding signal (z-score) [3]: 0.374 | glycan array binding signal (z-score) [4]: -0.078 | glycan array binding signal (z-score) [5]: -0.258 | glycan array binding signal (z-score) [6]: -0.196 | glycan array binding signal (z-score) [7]: -0.285 | glycan array binding signal (z-score) [8]: -0.273 | glycan array binding signal (z-score) [9]: -0.22 | glycan array binding signal (z-score) [10]: -0.178 | glycan array binding signal (z-score) [11]: -0.197 | glycan array binding signal (z-score) [12]: -0.237 | glycan array binding signal (z-score) [13]: -0.065 | glycan array binding signal (z-score) [14]: 0.767 | glycan array binding signal (z-score) [15]: -0.06 | glycan array binding signal (z-score) [16]: -0.286 | glycan array binding signal (z-score) [17]: -0.218 | glycan array binding signal (z-score) [18]: -0.267 | glycan array binding signal (z-score) [19]: -0.233 | glycan array binding signal (z-score) [20]: -0.203 | glycan array binding signal (z-score) [21]: -0.291 | glycan array binding signal (z-score) [22]: -0.254 | glycan array binding signal (z-score) [23]: -0.228 | glycan array binding signal (z-score) [24]: -0.247 | glycan array binding signal (z-score) [25]: -0.256 | glycan array binding signal (z-score) [26]: -0.263 | glycan array binding signal (z-score) [27]: -0.227 | glycan array binding signal (z-score) [28]: -0.293 | glycan array binding signal (z-score) [29]: 6.55 | glycan array binding signal (z-score) [30]: 5.54 | glycan array binding signal (z-score) [31]: 7.04 | glycan array binding signal (z-score) [32]: -0.228 | glycan array binding signal (z-score) [33]: 5.91 | glycan array binding signal (z-score) [34]: 7.21 | glycan array binding signal (z-score) [35]: -0.251 | glycan array binding signal (z-score) [36]: 2.1 | glycan array binding signal (z-score) [37]: 0.085 | glycan array binding signal (z-score) [38]: 2.32
